Results reported in PubChem BioAssay AID686978 (National Center for Advancing Translational Sciences (NCATS), 2013).
Hit rate of the full screen: of about 420,000 compounds, about 64,000 (15%) were called active. Inconclusive means that the source gave no clear call. Such entries were picked first, then a sample of the others. Calls come from the whole dose curve; as a rule, active = well fitted inhibition curve with a large enough effect; inconclusive = small, poorly fitted or top-dose-only effect; inactive = flat fitted curve, though single readings scatter. No potency is given beside an inconclusive call; the fits are too rough.
% is set by controls: 0 for no effect and ±100 for the full control effect; potency is the fitted concentration of half-maximal effect; tags give direction and shape of the fitted curve.

Test: qHTS for Inhibitors of human tyrosyl-DNA phosphodiesterase 1 (TDP1): qHTS in cells in absence of CPT; note: nearly all actives have a fitted effect of over 55% in size
Conditions: DT40 Tdp1-/- hTDP1 cells, no CPT, ATP luminescence, 48 h; activity change, negative = growth inhibition: at 46.2 µM (top of the series) unless noted
How it was run: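 Chicken DT40 Tdp1-/- cells complemented with human TDP1, screened without camptothecin (DMSO vehicle only), 400 cells/well. Compounds pin-transferred, cells incubated at 37 °C for at least 48 hr. Growth read as ATP-dependent luminescence (CellTiter-Glo, 30 min at RT).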
For `O=C(Nc1ccccn1)c1ccc(S(=O)(=O)c2ccc(Cl)cc2)cc1`, the Potency was inconclusive [inhibitor, single point]. With `Cc1ccc(S(=O)(=O)N2CCN=C2SCc2c(F)cccc2Cl)cc1` the Potency was active: 11.6 µM. In the case of `Cc1ccccc1NCC(=O)N/N=C\c1ccc([N+](=O)[O-])s1`, the Potency is reported as active: 9.2 µM. For `CC(C)(C)c1cc(CN2CCCC(O)C2)c(O)c(C(C)(C)C)c1` (centres undefined), the Potency was inconclusive [inhibitor, single point]. In the case of `Cc1cc(NC(=O)c2ccc(Cl)cc2)ccc1NC(=O)c1ccccc1Cl`, the “activity change, negative = growth inhibition” value is reported as inactive: -23.4%. For `CC(C)(C)NC(=O)C(c1ccccn1)N(C(=O)C1CSC(=O)C1)c1ccccc1F` (centres undefined), the “activity change, negative = growth inhibition” value was inactive: -0.251%. With `CC(C)N(Cc1nc(-c2ccccc2)no1)C(=O)CN(C)S(=O)(=O)c1ccc(Br)cc1` the Potency was inconclusive [inhibitor, single point]. With `Cc1ccc2cc3cc(C(=O)NCCCN4CC(C)CC(C)C4)oc3nc2c1` (centres undefined) the Potency was inconclusive [inhibitor, single point]. For `COc1ccc(O)c(/C=N/NC(=O)CN2CCS(=O)(=O)CC2)c1`, the “activity change, negative = growth inhibition” value was inactive: -56%. With `CCOc1ccc(-n2c(SCC(=O)Nc3ccc(F)cc3)nc3c([nH]c4ccccc43)c2=O)cc1` the Potency was inconclusive [inhibitor, partial curve]. In the case of `O=C(COCc1cc(-c2ccco2)on1)NC1CCCCC1`, the “activity change, negative = growth inhibition” value is reported as inactive: -12.2%. With `O=C(O)c1ccc(N2C(=O)c3[nH]nc(-c4ccccc4)c3C2c2ccccc2)cc1` (centres undefined) the “activity change, negative = growth inhibition” value was inactive: -0.675%. For `Cc1cc(NC(=O)c2ccccc2F)ncc1NC(=O)c1cccs1`, the Potency was inconclusive [inhibitor, single point]. In the case of `CCOC(=O)Nc1ccc2c(c1)N(C(=O)CN(CC)CC)c1ccccc1CC2`, the Potency is reported as inconclusive [inhibitor, single point]. For `COCCN(CCOC)Cc1cc(=O)oc2ccccc12`, the “activity change, negative = growth inhibition” value was inactive: -0.241%. For `CCCSc1nsc(NC(=O)CCC)n1`, the Potency was inconclusive [inhibitor, partial curve]. With `O=C(N/N=C/c1cc(Br)c(Br)o1)c1cccnc1` the Potency was active: 18.4 µM. With `NCC1O[C@H](O[C@@H]2C(O)[C@H](O[C@H]3OC(CO)C(O)C(N)C3O)[C@@H](N)C[C@H]2N)[C@@H](N)CC1O` (some centres undefined) the “activity change, negative = growth inhibition” value was inactive: -7.21%. For `O=C(Nc1ccc(F)cc1F)N1CCCC(c2nc(-c3ccc(F)cc3)no2)C1` (centres undefined), the Potency was inconclusive [inhibitor, partial curve, poor fit]. In the case of `O=C(c1cccnc1)N1CCN(S(=O)(=O)c2ccc3ccccc3c2)CC1`, the Potency is reported as inconclusive [inhibitor, partial curve, poor fit]. With `COc1ccc(S(=O)(=O)NNC(=O)c2ccc(-n3c(C)ccc3C)cc2)cc1` the “activity change, negative = growth inhibition” value was inactive: -3.25%. For `COc1ccc(-c2noc(-c3ccc(N4CCCCC4C)c([N+](=O)[O-])c3)n2)cc1OC` (centres undefined), the Potency was inconclusive [inhibitor, single point]. For `Cc1ccc(NC(=O)c2ccc(NCCc3ccccc3)c([N+](=O)[O-])c2)cc1F`, the Potency was inconclusive [inhibitor, partial curve]. In the case of `C=C(C)Cn1c(N2CCCC2)nc2c1c(=O)n(C)c(=O)n2C`, the Potency is reported as inconclusive [inhibitor, single point]. For `CCn1c(=O)c2cc(C(=O)N3CCN(C)CC3)sc2c2ccccc21`, the Potency was inconclusive [inhibitor, single point]. With `COc1ccc(/C=C2\SC(=O)N(CCC(=O)N(C)C3CCS(=O)(=O)C3)C2=O)cc1` (centres undefined) the Potency was inconclusive [inhibitor, single point]. In the case of `NS(=O)(=O)c1ccc(N/N=C/c2cn(-c3ccccc3)nc2-c2cccs2)cc1`, the Potency is reported as active: 2.91 µM. For `c1ccc(-c2ccccc2OCCCCN2CCCCCC2)cc1`, the Potency was inconclusive [inhibitor, single point]. For `O=C(c1ccc(F)cc1)N1CCC(C(=O)N2CCCc3ccccc32)CC1`, the Potency was inconclusive [inhibitor, single point]. For `COc1cccc2sc(N(CCN(C)C)C(=O)/C=C/c3cccs3)nc12`, the Potency was active: 20.6 µM. For `Cn1c(CSCc2ccccc2Cl)nnc1SCC(=O)Nc1nccs1`, the Potency was inconclusive [inhibitor, single point]. For `O=c1c(O)c(-c2ccccc2)oc2cc(O)ccc12`, the Potency was inconclusive [inhibitor, single point]. With `CCCN1C(=O)C(Cc2nc3ccccc3c(=O)n2-c2cccc(C)c2)c2ccccc21` (centres undefined) the Potency was inconclusive [inhibitor, single point]. For `Nc1nonc1C(=O)N/N=C/c1ccc(-c2cccc([N+](=O)[O-])c2)o1`, the Potency was inconclusive [inhibitor, single point]. With `CCn1cc(C(=O)NCC2CCCO2)c(=O)c2cc(S(=O)(=O)N3CCC(C)CC3)ccc21` (centres undefined) the Potency was inconclusive [inhibitor, single point]. For `CCOC(=O)c1ccccc1NC(=O)c1ccc(Cl)c(S(=O)(=O)N2CCOCC2)c1`, the Potency was active: 16.4 µM. In the case of `CCOc1ccc(CNC(=O)CCc2cn(C)c3ccccc23)cc1`, the activity change, negative = growth inhibition is reported as inconclusive: -33.3% [inhibitor]. In the case of `CCN(CC(=O)Nc1ccc2c(c1)OCCO2)C(=O)c1cc(Cl)nc2ccccc12`, the “activity change, negative = growth inhibition” value is reported as inactive: -34.1%. With `Cc1cc2c(o1)CC(C)(C)CC2=O` the “activity change, negative = growth inhibition” value was inactive: 0.0756%. For `CCC(C)(C)NC(=O)C(c1ccc(OC)cc1)N(C(=O)CCC(=O)Nc1cc(C)on1)c1ccc2c(c1)OCCO2` (centres undefined), the activity change, negative = growth inhibition was inconclusive: -33.4% [inhibitor]. In the case of `C[C@@H](NC(=O)[C@@H]1CCCN1C(=O)[C@@H]1CCCN1C(=O)c1ccc(Cl)cc1)c1ccccc1`, the Potency is reported as inconclusive [inhibitor, single point]. With `CCCC(=O)Nc1ccc(-c2nc3cc(C)c(C)cc3o2)cc1` the “activity change, negative = growth inhibition” value was inactive: -1.62%. With `CC1CCN(S(=O)(=O)c2ccc3c(c2)N(CC(=O)N(C)Cc2ccco2)C(=O)CO3)CC1` the Potency was inconclusive [inhibitor, single point]. In the case of `C=CCn1c(Oc2ccc(C(=O)OC)cc2)nc2c1c(=O)n(C)c(=O)n2C`, the Potency is reported as inconclusive [inhibitor, single point].
